Some of the results follow. Antibody binding of pooled human sera (four to six donors per pool; dilution not stated) to peptides of the Trypanosoma cruzi antigen TSSA on microarrays. Quantile-normalised fluorescence in arbitrary units, mean of duplicate arrays; higher = more binding. No active / inactive call. The uninfected pools are read here as the healthy donors of the same country. The strongest signals lie near the top of the scale (about 60,000).
What was measured:
Experiment in all cases: antibody binding signal (normalised fluorescence) (arbitrary fluorescence units); higher = stronger serum antibody binding to peptide
[1] = system: pooled sera of chronic Chagas disease patients, Bolivia
Description: (§1)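 Microarray of 15-residue peptides over residues 30-55 of Trypanosoma cruzi TSSAII, each with 1 to 10 substitutions at naturally variable positions, probed with one serum pool per country.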

[2] = system: pooled sera of chronic Chagas disease patients, Brazil
Description: as §1

[3] = system: pooled sera of chronic Chagas disease patients, Colombia
Description: as §1

[4] = system: pooled sera of chronic Chagas disease patients, Mexico
Description: as §1

[5] = system: pooled sera of chronic Chagas disease patients, USA
Description: as §1

[6] = system: pooled sera of uninfected people, Argentina
Description: as §1

[7] = system: pooled sera of uninfected people, Bolivia
Description: as §1

[8] = system: pooled sera of uninfected people, Brazil
Description: as §1

[9] = system: pooled sera of uninfected people, Colombia
Description: as §1

[10] = system: pooled sera of uninfected people, Mexico
Description: as §1

[11] = system: pooled sera of uninfected people, USA
Description: as §1

| Sequence | antibody binding signal [1] | antibody binding signal [2] | antibody binding signal [3] | antibody binding signal [4] | antibody binding signal [5] | antibody binding signal [6] | antibody binding signal [7] | antibody binding signal [8] | antibody binding signal [9] | antibody binding signal [10] | antibody binding signal [11] |
| --- | --- | --- | --- | --- | --- | --- | --- | --- | --- | --- | --- |
| EKKTATGGTPSPSGA | 595 | 441 | 4170 | 608 | 1590 | 331 | 758 | 412 | 642 | 160 | 795 |
| DKKPATGETPSQSGA | 23400 | 32700 | 120 | 159 | 23400 | 204 | 397 | 525 | 199 | 1660 | 137 |
| TISTPPSGKEKKAAA | 198 | 498 | 632 | 21100 | 648 | 757 | 577 | 137 | 290 | 76.2 | 238 |
| SGKENKTATGETPSP | 3830 | 12600 | 1690 | 1560 | 14900 | 6170 | 2610 | 184 | 482 | 682 | 770 |
| PPSGTDNKPAAGETP | 40800 | 45700 | 3010 | 2470 | 16400 | 965 | 679 | 422 | 508 | 864 | 315 |
| STPPSGKEKKPAAGE | 4470 | 2550 | 513 | 31800 | 798 | 1030 | 1050 | 128 | 622 | 107 | 342 |
| KDKKPATGETPSQSG | 5410 | 21900 | 167 | 189 | 18100 | 221 | 149 | 119 | 107 | 451 | 102 |
| KPATGGTPSPSGASS | 249 | 398 | 263 | 3040 | 249 | 207 | 579 | 199 | 308 | 190 | 294 |
| SGKEKKTAAGEAPSP | 428 | 3570 | 2390 | 5910 | 8160 | 225 | 147 | 101 | 376 | 133 | 98.6 |
| NKTAAGETPSQSGAS | 2490 | 5040 | 281 | 655 | 218 | 406 | 792 | 382 | 262 | 889 | 991 |
| DKKTAAGGAPSQPGA | 856 | 628 | 5620 | 489 | 651 | 214 | 114 | 152 | 285 | 228 | 168 |
| KENKPATGGAPSPPG | 986 | 3020 | 213 | 709 | 2920 | 373 | 848 | 132 | 118 | 115 | 150 |
| KTAAGETPSQSGASS | 2030 | 2270 | 147 | 596 | 192 | 221 | 354 | 167 | 162 | 343 | 175 |
| KENKPAAGGTPSQSG | 211 | 489 | 501 | 358 | 238 | 260 | 167 | 298 | 164 | 114 | 151 |
| SGKDNKTATGEAPSP | 25200 | 15900 | 1920 | 376 | 21400 | 299 | 228 | 179 | 417 | 96.7 | 155 |
| PSGKENKTATGETPS | 4680 | 9290 | 3370 | 4900 | 9020 | 5870 | 3280 | 283 | 746 | 604 | 229 |
| GTEKKPATGGTPSQS | 302 | 736 | 1390 | 2180 | 1110 | 302 | 966 | 1320 | 167 | 312 | 1140 |
| KPAAGGTPSQPGASS | 198 | 746 | 1990 | 285 | 282 | 275 | 133 | 293 | 171 | 327 | 131 |
| TPPSGTDKKPAAGGA | 8480 | 45200 | 8290 | 53000 | 8470 | 1790 | 361 | 1320 | 392 | 3170 | 520 |
| PPSGKENKPATGETP | 33500 | 28500 | 1010 | 2770 | 29000 | 3330 | 2580 | 362 | 894 | 1930 | 569 |
| GTDKKAAAGETPSQP | 1060 | 30800 | 2520 | 406 | 1830 | 101 | 331 | 142 | 614 | 218 | 125 |
| GKDKKPATGGAPSPS | 863 | 399 | 1250 | 1430 | 2000 | 247 | 406 | 113 | 90 | 103 | 112 |
| DNKTATGEAPSQSGA | 32000 | 21600 | 237 | 520 | 21900 | 206 | 113 | 255 | 135 | 131 | 135 |
| TPPSGTDKKTATGGT | 3110 | 24100 | 2010 | 37400 | 2340 | 288 | 209 | 814 | 245 | 307 | 185 |
| PPSGTENKTAAGGTP | 40100 | 45300 | 3190 | 8210 | 11900 | 1650 | 658 | 1490 | 623 | 2390 | 658 |
| GKEKKPATGGAPSPP | 1010 | 1590 | 4700 | 6620 | 4780 | 244 | 443 | 95.3 | 96.9 | 105 | 261 |
| TDNKTAAGGTPSQPG | 518 | 1020 | 4660 | 299 | 1470 | 413 | 338 | 1190 | 303 | 2140 | 155 |

| Sequence | antibody binding signal [1] | antibody binding signal [2] | antibody binding signal [3] | antibody binding signal [4] | antibody binding signal [5] | antibody binding signal [6] | antibody binding signal [7] | antibody binding signal [8] | antibody binding signal [9] | antibody binding signal [10] | antibody binding signal [11] |
| --- | --- | --- | --- | --- | --- | --- | --- | --- | --- | --- | --- |
| GKDKKAAAGEAPSPP | 222 | 751 | 727 | 761 | 7210 | 131 | 71.2 | 80 | 104 | 71.5 | 90.9 |
| PPSGKENKAAAGETP | 6880 | 3930 | 1190 | 2130 | 4600 | 3550 | 2300 | 242 | 1230 | 268 | 337 |
| GTDKKAAAGEAPSQP | 9460 | 40000 | 3020 | 472 | 12200 | 127 | 354 | 133 | 98.8 | 222 | 121 |
| KPATGGAPSPPGASS | 1690 | 556 | 339 | 259 | 1310 | 359 | 997 | 141 | 145 | 109 | 210 |
| KKAATGETPSQSGAS | 1430 | 15100 | 152 | 150 | 8280 | 365 | 261 | 104 | 305 | 127 | 410 |
| GKDKKPAAGGAPSQP | 297 | 2410 | 1380 | 508 | 317 | 95.2 | 82.7 | 163 | 80.8 | 87 | 77 |
| GKDKKAATGETPSQS | 283 | 6250 | 1710 | 1640 | 7180 | 213 | 104 | 102 | 186 | 79 | 108 |
| DKKTAAGEAPSQSGA | 5800 | 5230 | 477 | 496 | 6370 | 167 | 329 | 171 | 546 | 719 | 140 |
| DKKAATGGTPSQSGA | 520 | 444 | 947 | 693 | 1140 | 311 | 93.4 | 648 | 1010 | 170 | 166 |
| SGKDKKPATGGTPSQ | 732 | 635 | 956 | 717 | 1510 | 203 | 109 | 259 | 394 | 104 | 98.2 |
| TEKKPAAGGAPSPSG | 224 | 572 | 6540 | 596 | 1880 | 212 | 226 | 395 | 118 | 239 | 1160 |
| GKENKPAAGEAPSPP | 701 | 28900 | 3830 | 5320 | 18700 | 628 | 313 | 144 | 134 | 335 | 95.5 |
| TENKPAAGGTPSQSG | 830 | 2020 | 1270 | 904 | 327 | 297 | 797 | 1110 | 401 | 378 | 245 |
| GTENKAAAGEAPSQS | 16900 | 24300 | 1610 | 2290 | 12900 | 89.5 | 373 | 109 | 120 | 81.5 | 90.5 |
| GKENKAATGETPSPS | 2070 | 24900 | 18600 | 16500 | 24600 | 576 | 256 | 114 | 201 | 304 | 2610 |
| PSGKDKKPATGEAPS | 32200 | 42300 | 3460 | 4850 | 31200 | 823 | 867 | 157 | 182 | 107 | 134 |
| TENKPATGETPSPPG | 35900 | 35900 | 257 | 620 | 27200 | 334 | 426 | 368 | 146 | 1710 | 1450 |
| KENKTATGEAPSPSG | 10300 | 14500 | 862 | 438 | 20200 | 204 | 141 | 142 | 180 | 140 | 163 |
| TPPSGTDNKAATGGA | 42500 | 48200 | 2350 | 17600 | 11700 | 1470 | 702 | 1640 | 275 | 283 | 342 |
| TENKAATGGAPSQSG | 1100 | 4370 | 532 | 698 | 2970 | 261 | 168 | 218 | 163 | 182 | 200 |
| GKDKKTAAGGTPSPS | 222 | 184 | 3350 | 390 | 1610 | 109 | 86.2 | 304 | 136 | 72.7 | 121 |
| SGKDKKPAAGGTPSP | 210 | 368 | 3080 | 981 | 1180 | 102 | 89.5 | 506 | 739 | 81 | 91.4 |
| KDKKPATGEAPSQPG | 35000 | 45100 | 354 | 265 | 28800 | 696 | 300 | 193 | 172 | 128 | 131 |
| KENKAAAGEAPSPSG | 232 | 13400 | 170 | 222 | 10600 | 144 | 85 | 80.6 | 103 | 85.2 | 80.3 |
| GTDNKAATGEAPSPP | 41900 | 41700 | 279 | 337 | 26600 | 134 | 593 | 782 | 105 | 106 | 109 |
| GTDNKTAAGETPSQS | 380 | 32200 | 263 | 282 | 255 | 146 | 636 | 1400 | 155 | 156 | 116 |
